The other results are listed elsewhere or left out.
B1: chrX:115010634:115010735:-|CDS|ENSG00000123496|msi1|FALSE|unique (ssRNA)
RNA: GGGAGUUCUACAGUCCGACGAUCUGGAUCAUCAGAGAACAAGCCUAUCAGAUCCAGUUAUUUCACUUUUCAGCUUCAAAAUAUAGGUGAUGUAAACCAACAAACAACUUCAAAUUCAUUGUUUCUAGUUUAGGCCAUUUACAACAACAGAGGAUUGAGCAUCA
B2: chr10:119072878:119073036:-|CDS|ENSG00000107581|unk|FALSE|unique (ssRNA)
RNA: GGGAGUUCUACAGUCCGACGAUCCUUUUAACUCCAUGGGUUAAAUUCCUGUGGGAGUCUUACAGGCAGUGUUUGGACCUUCUUAGAAACAAUUCUAGAGUAGAGCGCCUGUACCAUGAUAUUGCCCAGCAAGGUAAGAUGAGACAACAGAGGAUUGAGCAUCA
B3: ENSG00000136451:be:win_3951|3pUTR|ENSG00000136451|bound_else_gene|NA|bound_elsewhere_windowed (ssRNA)
RNA: GGGAGUUCUACAGUCCGACGAUCGUAUGCAUUCUUUAUUCACUUAAGAAGCUUGUCUGCAAUAAUAAAGCCACGUCAUGUCUUCUUUUGGGAGGGAGAGAGUCGAUGGCAGGAGGGGGUUUUGGGUGGGCCACUGAAAAGGGGCAACAGAGGAUUGAGCAUCA
B4: chr18:722677:722778:-|3pUTR|ENSG00000176105|msi1|FALSE|unique (ssRNA)
RNA: GGGAGUUCUACAGUCCGACGAUCCCGCGCCCAGCCUACAUUCACUUCUAAAGUCUAUGUAAUGGUGGUCAUUUUUUCCCUUUUAGAAUACAUUAAAUGGUUGAUUUGGGGAGGAAAACUUAUUCUGAAUAUUAACGGUGGUGACAACAGAGGAUUGAGCAUCA
B5: ENSG00000070961:be:win_1551|CDS|ENSG00000070961|bound_else_gene|NA|bound_elsewhere_windowed (ssRNA)
RNA: GGGAGUUCUACAGUCCGACGAUCAAUUUCUGUGAAUUGUGCUUAUACAUCAAAAAUAUUGCCACCAGAGAAAGAGGGUGGAUUACCUCGUCACGUUGGUAAUAAAACUGAAUGUGCCUUGUUGGGACUUCUUUUGGAUUUAAACAACAGAGGAUUGAGCAUCA
B6: chr10:95311796:95311897:-|3pUTR|ENSG00000095637|unk|FALSE|unique (ssRNA)
RNA: GGGAGUUCUACAGUCCGACGAUCCAGACAUAGAUUUUUCUGUUCAUUUAUUUUUCUUCAUUGCAGUGGAUUGAUUUGAUAAAUAGAUGUGUUGAAUUACUACAUUUGCUGUACAUAUUAUUUAAUAAACUUUAUUCAGAAUUGCAACAGAGGAUUGAGCAUCA
B7: chr19:12791443:12791544:+|5pUTR|ENSG00000171223|unk|total|mutant (ssRNA)
RNA: GGGAGUUCUACAGUCCGACGAUCGGGGGGCGCGGGGGCCCGGCUCCGGCGACGGCCAAUCGGAGCGCACUUCCGUGGCUGACCCGCGCGGUAUAAAGGCGUGUGGCUCAGGCUGAGCGGCUGGGACCUUGAGAGCGGCCAGGCCAACAGAGGAUUGAGCAUCA
B8: chr1:94897714:94897775:-|CDS_3pUTR|ENSG00000117519|msi1_unk|total|mutant (ssRNA)
RNA: GGGAGUUCUACAGUCCGACGAUCGCGAGUACCAGGAUGACUACCCCAGAGAUUACCAAUACCGCGACCAAGGCAUUGAUUAUCCGAUCCACACAGAAGGAGCUCAGUAUUCCGUCCUUUGUUUUUAUUCAGUGAGAACCAAGCCAACAGAGGAUUGAGCAUCA
B9: chr2:32224452:32224765:-|three_prime_utr|ENSG00000091106|control|control|control (ssRNA)
RNA: GGGAGUUCUACAGUCCGACGAUCUCGUGUGAGCAGUGAUGGAUGGCUUGCCUUCAUGGGUGUAUUUGAGAAUCUUAAGCAAUUAGUGUUUUUUGACUUUAGUACUAAAGAAUUUCUACCUGAUCCAGCAUUAGUCAGAAAACUCAACAGAGGAUUGAGCAUCA
B10: chr15:40213340:40213445:+|CDS|ENSG00000156970|unk|total|mutant (ssRNA)
RNA: GGGAGUUCUACAGUCCGACGAUCACACAGUGAAUAUAUUACCCAUGAAAUAACAGUGUUGAUUAUUUAUAACCUUUUGACAACCGUGGAGAUGCUACACAAAGCAGAAACCGUCCAUGGUGACUUGAGUCCAAGGUGUCUGAUCAACAGAGGAUUGAGCAUCA
B11: chr13:73693106:73693207:-|3pUTR|ENSG00000118922|msi1|total|mutant (ssRNA)
RNA: GGGAGUUCUACAGUCCGACGAUCCAGAGAACACAGAGAGGGACAAACACAGCCAUGAACCCCCUGGCACCCGUACCAGCACCCCGUUGGCAAGCCGUGGGUGCAUCUCUCAAGUGAAGUGCCGAUUUGUAUUCCGUCCUGCUUCAACAGAGGAUUGAGCAUCA
B12: chr1:67426168:67426278:-|CDS|ENSG00000142864|unk|total|mutant (ssRNA)
RNA: GGGAGUUCUACAGUCCGACGAUCAUAAGACGAGUUGGAAGAAGACCUGAUCAACAACUUCAGGGUGAAGGGAAAAUAAUUGACCGAAGACCAGAAAGGCGACCACCUCGUGAACGAAGAUUCGAAAAGCCACUUGAAGAAAAGCAACAGAGGAUUGAGCAUCA
B13: chr12:285015:285116:-|3pUTR|ENSG00000073614|msi1|FALSE|bound_elsewhere (ssRNA)
RNA: GGGAGUUCUACAGUCCGACGAUCUAACAGGGCAUAUAGGAUGUGGCUUUUGUCCAGCUGAUAGUAGUUAGAGGCUUACAACUUAGGAGCAGCACCAACUGAAGGUGCUAAUUGCUUGGAUCUCCUUCAUUGGGAUAGUUGGAGCAACAGAGGAUUGAGCAUCA
B14: chr11:101473508:101473773:-|CDS|ENSG00000137672|control|control|control (ssRNA)
RNA: GGGAGUUCUACAGUCCGACGAUCUCCUCAAAUAAUAUCUGAAGGUCUUUAUGCAAUUGCUGUAGUUUUAAGUUUCUCUAGGAUAGCUUAUAUUUUACCAGCAAAUGAAAGCUUUGGACCUCUGCAGAUAUCACUUGGAAGAACCAACAGAGGAUUGAGCAUCA

The binders below were run against MSI1 full-length (mouse, UniProt Q61474 1-362) (assay: nsRBNS (natural sequence RNA bind-n-seq); RBNS binding buffer (assumed for nsRBNS): 25 mM Tris pH 7.5, 150 mM KCl, 3 mM MgCl2, 0.01% Triton X-100, 500 ug/ml BSA, 20 U/ml SUPERase-In, 4 C; UNK is unkempt and MSI1 is Musashi-1; names of the RNAs are library labels; protein concentration not given here; high values mean tight binding).
Chain of UniProt Q61474 (Q61474 whole entry): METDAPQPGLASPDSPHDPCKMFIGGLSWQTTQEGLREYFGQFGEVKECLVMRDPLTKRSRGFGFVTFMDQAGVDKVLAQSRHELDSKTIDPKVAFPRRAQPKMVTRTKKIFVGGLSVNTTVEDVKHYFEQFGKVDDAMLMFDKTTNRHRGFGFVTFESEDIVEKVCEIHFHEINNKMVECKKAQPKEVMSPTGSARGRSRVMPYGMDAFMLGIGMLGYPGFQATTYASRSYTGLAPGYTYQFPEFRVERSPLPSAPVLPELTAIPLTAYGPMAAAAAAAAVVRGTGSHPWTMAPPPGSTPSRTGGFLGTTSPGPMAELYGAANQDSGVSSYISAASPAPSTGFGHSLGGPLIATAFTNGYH
For B1, the binding signal was 1.74 enrichment R.
For B2, the binding signal was 0.658 enrichment R.
B3 gave a binding signal of 0.539 enrichment R.
B4 showed a binding signal of 0.754 enrichment R.
Work on B5 yielded a binding signal of 0.238 enrichment R.
B6 gave a binding signal of 2.8 enrichment R.
B7 showed a binding signal of 0.352 enrichment R.
B8 gave a binding signal of 0.422 enrichment R.
In the case of B9, the binding signal is reported as 3.3 enrichment R.
Work on B10 yielded a binding signal of 0.521 enrichment R.
With B11 the binding signal was 0.572 enrichment R.
With B12 the binding signal was 0.388 enrichment R.
In the case of B13, the binding signal is reported as 2.16 enrichment R.
Binder B14 has a binding signal of 1.39 enrichment R.

— paper PMC12136788
